{
  "source": "patent US20230395193A1",
  "about": "(priority 2020, published 2023)",
  "tested_on": "newly diagnosed COVID-19 patients",
  "parameters": "species or system human",
  "settings": "in vivo",
  "note": "“And” between values parts separate entries of the source, which are not always exact repeats. Equal values may be shown once.",
  "data": [
    {"molecule": "Cc1ccc(-c2cc(C(F)(F)F)nn2-c2ccc(S(N)(=O)=O)cc2)cc1", "note": "[celecoxib]", "values": [
      {"measurement": "Risk of any hospital visit per 1000 patients", "result": "98.04 per 1000 patients and 67.96 per 1000 patients"},
      {"measurement": "Risk of confirmed inpatient stays per 1000 patients", "result": "45.75 per 1000 patients and 29.13 per 1000 patients"}
    ]},
    {"molecule": "COc1ccc2c(c1)c(CC(=O)O)c(C)n2C(=O)c1ccc(Cl)cc1", "note": "[indomethacin]", "values": [
      {"measurement": "Number of confirmed inpatient stays", "result": 1},
      {"measurement": "Number of patients with any hospital visit", "result": "4 and 3"},
      {"measurement": "Odds ratio of any hospital visit versus referent", "result": "0.25 and 0.41"},
      {"measurement": "Risk of any hospital visit per 1000 patients", "result": "26.14 per 1000 patients and 29.13 per 1000 patients"},
      {"measurement": "Risk of confirmed inpatient stays per 1000 patients", "result": "6.54 per 1000 patients and 9.71 per 1000 patients"},
      {"measurement": "Risk ratio vs referent of any hospital visit", "result": "0.27 and 0.43"}
    ]}
  ]
}
